First the molecules themselves.
T1: human B7H3 on A498 cells (human, UniProt Q5ZPR3 29-534)
T1 construct: Endogenous B7H3 of A498 human kidney carcinoma cells; also called B7H3 positive A498 cells; human B7H3+ A498 cells
T1 sequence: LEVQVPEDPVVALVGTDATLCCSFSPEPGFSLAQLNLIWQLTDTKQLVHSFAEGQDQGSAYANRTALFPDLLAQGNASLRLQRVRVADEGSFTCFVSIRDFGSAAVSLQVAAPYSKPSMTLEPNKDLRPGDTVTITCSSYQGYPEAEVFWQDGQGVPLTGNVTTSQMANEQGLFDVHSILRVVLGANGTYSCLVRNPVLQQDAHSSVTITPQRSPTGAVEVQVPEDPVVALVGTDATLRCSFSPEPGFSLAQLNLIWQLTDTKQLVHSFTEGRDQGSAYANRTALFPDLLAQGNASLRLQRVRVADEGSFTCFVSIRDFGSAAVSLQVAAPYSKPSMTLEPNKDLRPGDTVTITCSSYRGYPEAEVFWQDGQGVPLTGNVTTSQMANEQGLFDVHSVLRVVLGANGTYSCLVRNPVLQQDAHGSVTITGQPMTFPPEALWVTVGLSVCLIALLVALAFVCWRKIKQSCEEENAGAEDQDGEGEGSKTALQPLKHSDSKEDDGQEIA

T2: recombinant human B7H3 extra cellular domain (ECD) protein (human, UniProt Q5ZPR3 29-461)
T2 construct: also called h-B7H3 ECD; h-B7H3; not shown: C-terminal poly-histidine tag or Fc tag
T2 sequence: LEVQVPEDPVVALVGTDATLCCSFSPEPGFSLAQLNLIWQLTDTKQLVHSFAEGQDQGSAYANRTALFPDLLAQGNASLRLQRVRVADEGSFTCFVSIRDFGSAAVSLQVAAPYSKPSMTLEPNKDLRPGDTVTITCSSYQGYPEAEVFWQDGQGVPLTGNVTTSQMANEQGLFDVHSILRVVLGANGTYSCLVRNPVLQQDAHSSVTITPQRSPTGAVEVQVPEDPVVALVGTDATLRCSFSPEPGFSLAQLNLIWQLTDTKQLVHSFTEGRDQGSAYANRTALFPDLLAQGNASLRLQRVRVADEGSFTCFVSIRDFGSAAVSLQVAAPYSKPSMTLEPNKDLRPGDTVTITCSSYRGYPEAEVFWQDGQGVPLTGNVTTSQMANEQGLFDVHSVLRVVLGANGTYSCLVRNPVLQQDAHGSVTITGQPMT

B1: 19C10 VHH-Fc (Fc fusion)
chain: QVQLVESGGGLVQAGGSLRLSCAASGSTFSKYAMGWFRQAPRKARGFVGAVTSAGSTWYEDSVKGRFTISRDNAKNTVYLQMNSLKPEDTAVYYCAATTIATMPWLMVSSRYAYWGQGTQVTVSS[skipping human IgG1 Fc]
notes: Bivalent VHH-Fc with human IgG1 Fc; also called parental clone
B2: 19c10-V4 (Fc fusion)
chain: B1 chain with Q1E, V5L, A14P, R42G, A74S, V78L, K86R, P87A, Q120L
notes: also called 19C10-V4 VHH-Fc
B3: 20C11 VHH-Fc (Fc fusion, human)
chain: QVQLVESGGGLVQPGGSLRLSCAASELTLDYNIGWFRQAPRKARGFVGAVTSAGSTWYEDSVKGRFTISRDNAKNTVYLQMNSLKPEDTAVYYCAATTIATMPWLMVSSRYAYWGQGTQVTVSS[skipping human IgG1 Fc]
notes: domain: Fc region including CH2 and CH3; Bivalent VHH-Fc with human IgG1 Fc, expressed in ExpiCHO
B4: 14C4 VHH-Fc (Fc fusion, human)
chain: B1 chain with L11V, S27R, K31S, A33G
notes: as for B3
B5: 6H4 VHH-Fc (Fc fusion, human)
chain: B1 chain with V5Q, G10D, A14P, R19T, S27G, T28S, K31S, Y32D, A33S
notes: as for B3
B6: 7H7 VHH-Fc (Fc fusion, human)
chain: B1 chain with Q3K, V5E
notes: as for B3
B7: 7F3 VHH-Fc (Fc fusion, human)
chain: B1 chain with E6D, G16D, S27R, T28P, S30N, K31S, Y32W, A33S
notes: as for B3
B8: 14B12 VHH-Fc (Fc fusion, human)
chain: B1 chain with L11V, S27R, S30R, K31N, Y32F, A33G
notes: as for B3
B9: 5E8 VHH-Fc (Fc fusion, human)
chain: QVKLEESGGGLVQAGGSLKLSCAASGRTFSSDSMAWFREAPGKARGFVAVVSRSAGSTWYEDSVKGRFTISRDNAKNTVYLQMNSLKPEDTAVYYCAATDIATMPWLMVSSRYDYWGQGTQVTVSS[skipping human IgG1 Fc]
notes: as for B3
B10: 5H8 VHH-Fc (Fc fusion, human)
chain: B9 chain with L11Q, G16D, L18R, K19T, A23V
notes: as for B3
B11: 18B5 VHH-Fc (Fc fusion, human)
chain: B9 chain with K3Q, E5Q, K19T, A23T, R27I
notes: as for B3
B12: 21F11 VHH-Fc (Fc fusion, human)
chain: QVQLVESGGGLVQPGGSLRLSCAASGDDFFTINAIDAIGWFRQAPRKARGFVGAVTSAGSTWYEDSVKGRFTISRDNAKNTVYLQMNSLKPEDTAVYYCAATTIATMPWLMVSSRYAYWGQGTQVTVSS[skipping human IgG1 Fc]
notes: as for B3

Substitutions are numbered along the chain they refer to.

For the first experiment, the target named is T1, human B7H3 on A498 cells. The experiment can be described thus: flow cytometry, whole cell binding to B7H3+ A498 cells, MFI. (In general: Flow cytometry measures light scatter and fluorescence of single cells or particles in a stream.)
By EC50 is commonly meant the concentration giving half of the maximal effect. Read a high EC50 as a less potent agent. In the case of B1, the EC50 came to 0.254 nM.

The target of another experiment is T1, human B7H3 on A498 cells. The experiment can be described thus: flow cytometry, whole cell binding to B7H3+ A498 cells, MFI (FITC).
As for B2, the EC50 turned out to be 0.16 nM.

For another experiment, the target named is T1, human B7H3 on A498 cells. The experiment can be described thus: flow cytometry, whole cell binding to B7H3+ A498 cells, MFI. The source holds these as a separate data set.
B3: a half-maximal effect (EC50) was put at 1.09 nM.

The molecule B4 came in with an EC50 of 0.473 nM. This EC50 lies about 2.3-fold lower than the previous one.

In turn, B1 displayed an EC50 of 0.356 nM. This EC50 and that of the molecule before are within 1.5-fold of each other.

On to B5, for which it took 0.502 nM to reach a half-maximal effect (EC50). This EC50 and that of the molecule before are within 1.5-fold of each other.

For B6, the EC50 was determined as 0.272 nM.

In turn, B7 came in with an EC50 of 0.599 nM.

Molecule B8 returned an EC50 of 1.08 nM.

The molecule B9 showed an EC50 of 0.451 nM.

Molecule B10 came in with an EC50 of 0.537 nM.

B11 displayed an EC50 of 0.679 nM.

B12 gave an EC50 of 0.779 nM. The EC50 values of the last two molecules are within 1.5-fold of each other.

In a further experiment the target is T2, recombinant human B7H3 extra cellular …. The experiment can be described thus: Octet binding assay, VHH-Fc form. For orientation: In BLI a coated tip is dipped into the sample, and binding shifts an interference pattern.
As a reminder, the Kd is a measure of binding affinity in units of concentration. By koff is commonly meant a measure of how fast the partners let go of each other. As usually defined, the kon is a measure of how fast the partners come together. Regarding B3, the Kd was 1.01 nM, the koff came to 0.000451 s⁻¹ and the kon worked out at 446000 M⁻¹ s⁻¹.

As to B4, the Kd was determined as 0.664 nM, the koff worked out at 0.000286 s⁻¹ and the kon came to 431000 M⁻¹ s⁻¹.

Consider B1, for which the Kd came out at 1.05 nM, the koff was 0.000479 s⁻¹ and the kon stood at 457000 M⁻¹ s⁻¹.

Consider B5, for which the Kd was found to be 0.895 nM, the koff is 0.000438 s⁻¹ and the kon came out at 490000 M⁻¹ s⁻¹.

In the case of B6, the Kd stood at 1.43 nM, the koff turned out to be 0.000693 s⁻¹ and the kon came out at 485000 M⁻¹ s⁻¹.

Regarding B7, the Kd came out at 1.48 nM, the koff turned out to be 0.000594 s⁻¹ and the kon was found to be 402000 M⁻¹ s⁻¹.

On to B8, for which the Kd is 2.06 nM, the koff came to 0.000847 s⁻¹ and the kon was 410000 M⁻¹ s⁻¹.

Consider B9, for which the koff amounted to 0.000303 s⁻¹ and the kon was 582000 M⁻¹ s⁻¹.

Take B10: the Kd amounted to 0.617 nM, the koff is 0.000301 s⁻¹ and the kon amounted to 488000 M⁻¹ s⁻¹.

With B11, the dissociation constant Kd turned out to be 0.58 nM, the koff is 0.000284 s⁻¹ and the kon came to 490000 M⁻¹ s⁻¹.

As for B12, the Kd turned out to be 1.23 nM, the koff was 0.000519 s⁻¹ and the kon came to 421000 M⁻¹ s⁻¹.

The values are drawn from patent publication US20250243278A1 (SHANGHAI HENLIUS BIOTECH, published 2025).
